Experimental data as given in PubChem BioAssay AID686978 (National Center for Advancing Translational Sciences (NCATS), 2013).
Values joined by “and” are separate entries in the source; they are usually repeats but may differ in a detail not shown here. Identical values can stand only once. Screen size: about 420,000 compounds; about 64,000 (15%) were called active. The inconclusive results got no clear call from the source; some entries with a clear call stand among them for comparison. The call rests on the fitted dose curve; in most records, active means well fitted inhibition curve with a large enough effect; inconclusive means small, poorly fitted or top-dose-only effect; inactive means flat fitted curve, though single readings scatter. Potencies of inconclusive entries are left out as doubtful fits.

Assay: qHTS for Inhibitors of human tyrosyl-DNA phosphodiesterase 1 (TDP1): qHTS in cells in absence of CPT; further: nearly all actives have a fitted effect of over 55% in size
Settings: DT40 Tdp1-/- hTDP1 cells, no CPT, ATP luminescence, 48 h; activity change, negative = growth inhibition: at 46.2 µM (top of the series) unless noted
Summary of the method: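 A cellular qHTS used chicken DT40 cells lacking endogenous Tdp1 but carrying stably transfected human TDP1. Compounds were applied without camptothecin, and cell growth kinetics were judged by ATP-dependent luminescence after ≥48 hr.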
On the % scale 0 is the no-effect control and ±100 the full control effect; potency means the concentration at half of the fitted maximal effect; tags describe the fitted curve by direction and shape.

Row | Structure (SMILES) | Potency | activity change, negative = growth inhibition
1 | CC(C)(C)n1nc2c(c1NC(=O)c1cc([N+](=O)[O-])ccc1Cl)CS(=O)(=O)C2 | inconclusive [inhibitor, partial curve] | –
2 | C=CCn1c(SCc2ccccc2C#N)nnc1-c1ccccc1O | inactive | –
3 | C/C(=C/C(=O)N1CCc2ccccc21)C(=O)O | inactive | –
4 | Cc1ccc(C23CC4CC(CC(C(=O)N5CCN(C)CC5)(C4)C2)C3)cc1 | inconclusive [inhibitor, single point] | –
5 | COc1cc(-c2cc(C)c3cccc(OC)c3n2)cc2c1OCCN(C(=O)CCn1ccc(C)n1)C2 | active: 23.1 µM | –
6 | CCN(CC(=O)Nc1c(F)cccc1F)C(=O)c1ccc(N2CCCC2)c([N+](=O)[O-])c1 | – | inconclusive: -34.8% [inhibitor]
7 | Nc1c2c(=O)[nH]c(O)cc2nn1-c1ccccc1 | inconclusive [inhibitor, single point] | –
8 | COc1ccc(NC(=O)COC(=O)c2c3c(nc4ccccc24)CCCC3)cc1Cl | active: 7.31 µM | –
9 | Nc1ccc(Nc2nc(-c3cc4ccccc4oc3=O)cs2)cc1 | active: 8.2 µM | –
10 | COCCNC(=O)C(=O)NNS(=O)(=O)c1ccc2ccccc2c1 | inconclusive [inhibitor, single point] | –
11 | CSc1nnc(C(C)c2ncc(C(F)(F)F)cc2Cl)n1C (stereo not drawn) | inconclusive [inhibitor, full curve] | –
12 | S=C1NCN(CCc2ccccc2)CN1Cc1ccccc1 | inconclusive [inhibitor, full curve, poor fit] | –
13 | OC[C@@H]1CN(CCN2CCOCC2)C[C@H](n2cnc3c(NC4CCC4)ncnc32)O1 | inactive | –
14 | NC(=O)c1nsc(C(=O)N(CC(=O)NCc2ccc3c(c2)OCO3)C2CCCCC2)c1N | – | inconclusive: -31% [inhibitor]
15 | COc1cc2c(cc1OC)CN(C(=O)/C=C/c1cc(OC)c(OC)c(OC)c1)CC2 | active: 9.2 µM | –
16 | COC(=O)c1ccc(Cn2c(C)c(C(=O)NCc3ccc([N+](=O)[O-])cc3)sc2=O)o1 | inconclusive [inhibitor, single point] | –
17 | Cc1cc(NC(=O)c2ccc3c(c2)OCO3)ccc1NC(=O)c1ccccc1 | inconclusive [inhibitor, single point] | –
18 | CCn1c(-c2cc(C3CC3)nc3ccccc23)n[nH]c1=S | inconclusive [inhibitor, single point] | –
19 | O=C(c1ccc(COc2ccc3c(c2)CCC3)o1)N1CCN(c2ccccc2)CC1 | inconclusive [inhibitor, single point] | –
20 | CC1=C(O)C(=O)C(c2c(C)cc(C)c(Br)c2C)=C(O)C1=O | inconclusive [inhibitor, single point] | –
21 | COc1cccc(C(=O)NC2CCN(C(=O)N3c4ccccc4Sc4ccccc43)CC2)c1 | inconclusive [inhibitor, partial curve] | –
22 | O=c1[nH]cc([N+](=O)[O-])cc1Br | inconclusive [inhibitor, single point] | –
23 | Clc1ccc2c(NCc3ccccn3)ncnc2c1 | inconclusive [inhibitor, single point] | –

Row | Structure (SMILES) | Potency | activity change, negative = growth inhibition
24 | CC(C)c1ccc(OCc2ccc(C(=O)N(C)C)o2)cc1 | inconclusive [inhibitor, single point] | –
25 | Cc1ccc(S(=O)(=O)NCN2C(=O)c3ccccc3C2=O)cc1 | inactive | –
26 | COc1ccc(CCNc2oc(-c3ccccc3OC)nc2C#N)cc1OC | active: 18.4 µM | –
27 | Cc1ccc(CCNC(=O)CCCn2c(=O)c3ccccc3n(Cc3ccccc3C)c2=O)cc1 | inconclusive [inhibitor, single point] | –
28 | CC(=O)N1c2ccc(S(=O)(=O)N3CCCCCC3)cc2CC1C(=O)NCc1ccccc1C (stereo not drawn) | inconclusive [inhibitor, single point] | –
29 | CC1CCCC(NC(=O)CCNS(=O)(=O)c2ccc(Br)cc2)C1C (stereo not drawn) | inactive | –
30 | COC(=O)c1c(C)[nH]c(C(=O)CSc2ccc(Cl)cc2)c1C | inconclusive [inhibitor, partial curve, poor fit] | –
31 | Cc1ccc(F)cc1NC(=O)CSCc1nc2sc(C)c(C)c2c(=O)[nH]1 | inconclusive [inhibitor, single point] | –
32 | CC1(C)Cc2c(C#N)c(SCCOc3ccccc3)nc(N3CCOCC3)c2CO1 | inconclusive [inhibitor, single point] | –
33 | COc1ccc(CNC(=O)C[C@H]2C(=O)N(Cc3ccc(OC)cc3)C[C@@H]2Cc2ccccc2)cc1 | active: 8.91 µM | –
34 | CCc1ccc2[nH]c(=O)c(C(c3nnnn3CCOC)N3CCN(c4ccccc4F)CC3)cc2c1 (stereo not drawn) | inconclusive [inhibitor, single point] | –
35 | COc1ccc(CCNC(=O)Cn2c(=O)n(-c3ccccc3)c(=O)c3c(C)c(C)sc32)cc1OC | inactive | –
36 | COc1ccccc1NC(=O)COC(=O)C1CC2CCCC(C1)C2=O (stereo not drawn) | inactive | –
37 | Cc1ccc(NCc2nnc(SCC(=O)Nc3cccc(O)c3)n2CC2CCCO2)c(C)c1 (stereo not drawn) | inconclusive [inhibitor, single point] | –
38 | COc1cc(OC)c(-c2cc(C(=O)NCc3ccc(F)cc3)c3c(-c4ccccc4)[nH]nc3n2)cc1OC | inconclusive [inhibitor, single point] | –
39 | O=C(O)COc1ccc(CCNS(=O)(=O)c2ccccc2)s1 | inactive | –
40 | CCCn1c2c(c(O)c(C(=O)Nc3nccs3)c1=O)CCCC2 | inconclusive [inhibitor, single point] | –
41 | Cc1cccc2c(-c3ccccc3)cc(=O)[nH]c12 | inconclusive [inhibitor, partial curve] | –
42 | COc1ccc(C2CC(=O)N(C)c3ccccc3S2)cc1OC (stereo not drawn) | inconclusive [inhibitor, single point] | –
43 | COc1ccc(-c2cc(-c3cccs3)c(C#N)c(SCC(=O)NCc3ccccc3)n2)cc1 | inconclusive [inhibitor, partial curve] | –
44 | C=CCn1c(N)c(C(=O)NCc2ccco2)sc1=S | inactive | –
45 | O=C(CCC(=O)N(CC(=O)NC1CCCCC1)Cc1ccc(F)cc1)Nc1nccs1 | – | inconclusive: -30.4% [inhibitor]
46 | COC(=O)c1cccc(N(CC(=O)NC2CCCCC2)C(=O)CNC(=O)c2cccs2)c1 | inactive | –

Row | Structure (SMILES) | Potency | activity change, negative = growth inhibition
47 | COc1ccccc1NC(=S)NCC1CCCCC1 | inconclusive [inhibitor, single point] | –
48 | O=C1NN(c2ccc(F)cc2)C(=O)/C1=C\C=C\c1ccco1 | inconclusive [inhibitor, partial curve] | –
49 | O=C(NCc1ccccc1)c1cccc(Br)n1 | – | inconclusive: -34% [inhibitor]
50 | O=C(NCc1cccnc1)C1CCC(c2ccc(Cl)cc2)CC1 (stereo not drawn) | active: 16.4 µM | –
51 | CCOCCCn1c(SCC(=O)Nc2ccc(C(N)=O)cc2)nc2ccccc2c1=O | inconclusive [inhibitor, single point] | –
52 | Cc1ccc(Cn2c(Sc3ncccn3)nc3c2c(=O)[nH]c(=O)n3C)cc1 | active: 16.4 µM | –
53 | O=C(NC1CCCc2ccccc21)c1ccc2c(c1)sc1nc(-c3ccccc3)cn12 (stereo not drawn) | active: 18.4 µM | –
54 | O=C(Cn1c(=O)n(Cc2ccccc2)c(=O)c2sc3ccccc3c21)Nc1ccccc1F | inconclusive [inhibitor, partial curve, poor fit] | –
55 | O=C(Nc1ccc2c(c1)CCCN2C(=O)c1cccs1)c1ccccc1 | active: 16.4 µM and active: 13 µM | –
56 | CC(C)C1N=C2c3ccccc3N=C(SCC(=O)NCc3ccc(Cl)cc3)N2C1=O (stereo not drawn) | inconclusive [inhibitor, single point] | –
57 | CCN1CCN(Cc2ccc(NC(=O)c3ccc(C)c(NC(=O)c4cc(-c5ccc(Br)cc5)n[nH]4)c3)cc2C(F)(F)F)CC1 | inconclusive [inhibitor, single point] | –
58 | O=[N+]([O-])c1ccc(CNC2CCCc3ccccc32)cc1 (stereo not drawn) | inconclusive [inhibitor, partial curve] | –
59 | Cc1c(/C=N/NC(=O)CNc2ccccc2)c2ccccn2c1C(=O)c1ccc(Cl)cc1 | inconclusive [inhibitor, single point] | –
60 | COc1cc(-c2nnc(-c3ccncc3)o2)ccc1OCc1ccccc1 | active: 9.2 µM | –
61 | COc1ccc(-n2nc(C(=O)NCC(=O)NCCCN3CCN(C)CC3)c3ccccc3c2=O)cc1 | inconclusive [inhibitor, single point] | –
62 | COC(=O)c1c(SCC(=O)NC2CCCCC2)[nH]c2ccccc2c1=O | inconclusive [inhibitor, single point] | –
63 | C=CCOc1ccc(C[C@H](N)C(=O)NC[C@H]2O[C@@H](n3cnc4c(N)ncnc43)[C@H](O)[C@@H]2O)cc1 | inactive | –
64 | CCOc1ccc(NC(=O)c2ccccc2NC(=O)CN2CCCCCC2)cc1 | inconclusive [inhibitor, single point] | –
65 | Oc1ccc(Cl)cc1/C=N/c1nc2ccccc2[nH]1 | inactive | –
66 | CCC1CCc2c([nH]c3ccccc3c2=O)O1 (stereo not drawn) | inconclusive [inhibitor, partial curve, poor fit] | –
67 | O=C(NCC1CCCO1)c1cn(-c2ccccc2)nc1-c1ccccc1 (stereo not drawn) | inconclusive [inhibitor, single point] | –
68 | CC(CNC(=O)CCc1cn(Cc2ccccc2Cl)c2ccccc12)c1ccccc1 (stereo not drawn) | inconclusive [inhibitor, single point] | –
